# Measurements as given in PubChem BioAssay AID624417 (National Center for Advancing Translational Sciences (NCATS), 2012).
# In all, about 410,000 compounds went through this assay and about 6,400 (1.6%) were called active. The shares of active, inactive and inconclusive entries below differ from those in the screen. Calls come from the whole dose curve; as a rule, active = well fitted inhibition curve with a large enough effect; inconclusive = small, poorly fitted or top-dose-only effect; inactive = no such curve, though single readings can be large or run the other way. No potency is given beside an inconclusive call; the fits are too rough.
# Molecular target: Glucagon-like peptide 1 receptor (Homo sapiens) (UniProt P43220)
# Experiment: qHTS of GLP-1 Receptor Inverse Agonists (Inhibition Mode); note: nearly all actives have a fitted effect of over 55% in size
# Settings: HEK293 GLP-1R CRE-luciferase, luminescence, 24 h, GLP-1R form is constitutively active; series mostly up to 38.3 µM
# How it was run: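 Luminescence readout: a drop in cAMP-driven luciferase signal flags inverse agonism at a constitutively active GLP-1R stably expressed in HEK293. Compound exposure lasted 24 hr at 37 deg C, 5% CO2.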
# Potency is the fitted concentration of half-maximal effect; tags give direction and shape of the fitted curve.
# Chain of UniProt P43220 (P43220 whole entry, looked up): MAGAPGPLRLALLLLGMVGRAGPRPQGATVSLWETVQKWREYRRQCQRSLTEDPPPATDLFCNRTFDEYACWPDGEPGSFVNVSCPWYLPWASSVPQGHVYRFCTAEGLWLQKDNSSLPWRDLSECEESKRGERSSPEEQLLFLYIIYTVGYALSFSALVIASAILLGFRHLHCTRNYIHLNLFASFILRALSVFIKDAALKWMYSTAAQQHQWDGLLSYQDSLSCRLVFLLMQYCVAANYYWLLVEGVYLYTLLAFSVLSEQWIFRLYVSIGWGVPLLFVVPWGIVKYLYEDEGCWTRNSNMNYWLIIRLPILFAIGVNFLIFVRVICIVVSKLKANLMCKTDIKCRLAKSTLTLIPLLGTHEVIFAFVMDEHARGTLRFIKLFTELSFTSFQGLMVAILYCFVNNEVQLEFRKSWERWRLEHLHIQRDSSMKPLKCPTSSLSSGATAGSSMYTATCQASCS
row,SMILES,Potency
1,O=C(N/N=C/c1c[nH]c2ccccc12)c1cccc(O)c1,inactive
2,CCCCNc1c(-c2ccc(SC(C)CC)cc2)nc2ccccn12 (configuration not stated),"inconclusive [inhibitor, single point]"
3,COc1ccc(OC)c(C(c2nnnn2CC2CCCO2)N2CCN(C3CCCC3)CC2)c1 (configuration not stated),"inconclusive [inhibitor, partial curve, poor fit]"
4,CCOC(=O)C1CCCN(Cc2cn3c(-c4ccc(Br)cc4)nnc3s2)C1 (configuration not stated),inactive
5,NC(Cc1ccc(Cl)cc1)c1csc(NC(=O)Nc2ccccc2-c2ccccc2)n1 (configuration not stated),"inconclusive [inhibitor, single point]"
6,CCCCCn1c(=O)[nH]c2cc(C(=O)NCCCN3CCCCC3C)ccc2c1=O (configuration not stated),"inconclusive [inhibitor, partial curve, poor fit]"
7,O=C(c1nc(-c2ccccc2)n(-c2ccccc2)n1)N1CCN(S(=O)(=O)c2ccccc2)CC1,"inconclusive [inhibitor, partial curve, poor fit]"
8,O=S1(=O)c2ccccc2OC(COCc2ccccc2)CN1C1CC1 (configuration not stated),"inconclusive [inhibitor, single point]"
9,CC1CCN(c2ccc(NC(=O)c3ccc(Br)o3)cc2)CC1,"inconclusive [inhibitor, single point]"
10,Cc1ccc(C(C)NC(=O)C23CC4CC(CC(C4)C2)C3)cc1 (configuration not stated),"inconclusive [inhibitor, full curve, poor fit]"
11,O=C1[C@H]2CCC=C[C@H]2[C@H](c2ccccc2Br)N1Cc1ccccc1,"inconclusive [inhibitor, partial curve, poor fit]"
12,O=C(C=Cc1cccc(O)c1)c1ccccc1O,"inconclusive [inhibitor, single point]"
13,O=S(=O)(NCCN1CCOCC1)c1ccc(Oc2ccccc2Cl)cc1,"inconclusive [inhibitor, single point]"
14,C=C(C)CNC(=S)NN=C1c2ccccc2-c2ccccc21,"inconclusive [inhibitor, partial curve, poor fit]"
15,Cc1c(Cl)cccc1NC(=O)C(=O)NCC(c1cccnc1)N1CCN(c2ccccc2)CC1 (configuration not stated),inactive
16,COc1ccc(NC(=O)Cn2cc(C(=O)C3CCCCC3)c3ccccc32)cc1,"inconclusive [inhibitor, single point]"
17,O=C(Nc1ccc(C(=O)N2CCN(c3ccc(F)cc3)CC2)cc1)C1=CSCCO1,"inconclusive [inhibitor, single point]"
18,COc1ccc(-c2cc(C(F)(F)F)nc(SCCC(=O)Nc3cccc(O)c3)n2)cc1,"inconclusive [inhibitor, single point]"
19,S=c1[nH]cc(-c2ccccc2)n1-c1ccccc1,"inconclusive [inhibitor, single point]"
20,COC(=O)c1sccc1NC(=O)Nc1cccc(C)c1,inactive
21,CC1CCN(C(=O)c2[nH]cnc2C(=O)Nc2ccc(Cl)cc2)CC1,"inconclusive [inhibitor, partial curve, poor fit]"

row,SMILES,Potency
1,Cc1ccc(-c2nn(-c3ccc(F)cc3)cc2C(=O)NCC2CCCO2)cc1 (configuration not stated),"inconclusive [inhibitor, single point]"
2,Cc1ccc(C)c(NC(=O)COc2coc(CN3CCc4ccccc4C3)cc2=O)c1,"inconclusive [inhibitor, partial curve, poor fit]"
3,COc1cccc(NC(=O)Nc2ccc(F)cc2)c1,"inconclusive [inhibitor, single point]"
4,CCOc1ccc(CCNC(=O)c2sc3ncccc3c2-n2c(C)ccc2C)cc1,"inconclusive [inhibitor, partial curve, poor fit]"
5,CCc1noc(-c2ccc(N(C)Cc3ccc(OC)cc3)c([N+](=O)[O-])c2)n1,"inconclusive [inhibitor, partial curve, poor fit]"
6,CN(c1ccc(F)cc1)S(=O)(=O)c1ccc(Cl)c(C(=O)NCc2ccco2)c1,"inconclusive [inhibitor, single point]"
7,O=C(Nc1ccc(F)cc1)N[C@H]1CC[C@H](CCNS(=O)(=O)c2cccc(Cl)c2)O[C@@H]1CO,"inconclusive [inhibitor, single point]"
8,Cc1noc(C)c1CSc1nnc2sc3ccccc3n12,inactive
9,CCOC(=O)c1c(NC(=O)COc2ncnc3ccccc23)sc(C)c1CC,"inconclusive [inhibitor, single point]"
10,Cc1cccc(NC(=O)C2CCN(S(=O)(=O)c3ccc4c(c3)CCCC(=O)N4)CC2)c1,inactive
11,Cc1cc(NC(=O)CCC(=O)N(c2ccc(F)cc2)C(C(=O)NC2CCCC2)c2ccc(C)o2)no1 (configuration not stated),"inconclusive [inhibitor, partial curve, poor fit]"
12,O=C1CN(C(=O)COC(=O)c2ccc(N3CCCCCC3)c([N+](=O)[O-])c2)c2ccccc2N1,"inconclusive [inhibitor, single point]"
13,CCOC(=O)[C@]12CCC=C1N(CCC1=CCCCC1)C(=O)[C@H](CC(=O)N1CCC(c3ccccc3)CC1)C2,"inconclusive [inhibitor, single point]"
14,CCN=c1scc(-c2ccccc2)n1/N=C/c1ccccn1,active: 3.16 µM
15,Cc1ccc2c(c1)CC(C)N2S(=O)(=O)c1nnc(NC(=O)C(C)C)s1 (configuration not stated),"inconclusive [inhibitor, partial curve, poor fit]"
16,CC12CCC(C(=O)Nc3cc(Cl)ccc3Cl)(C(Br)C1=O)C2(C)C (configuration not stated),"inconclusive [inhibitor, single point]"
17,CCCN(C(=O)c1sc2nc3n(c(=O)c2c1C)CCCC3)c1ccccc1C,"inconclusive [inhibitor, partial curve, poor fit]"
18,COc1ccccc1N1CC(O)=C(c2nc3ccccc3c(=O)[nH]2)C1=N,inactive
19,CCc1cccc(C)c1NC(=O)C(CC)n1ncn2c(cc3cc(C)ccc32)c1=O (configuration not stated),inactive
20,CC(=O)Nc1cc(-c2ccc(N3CCN(C)CC3)cc2)cn2c(-c3cccc(C(=O)N(C)C)c3)cnc12,inactive
21,COc1ccccc1C(=O)OCc1c(F)cccc1Cl,"inconclusive [inhibitor, single point]"

row,SMILES,Potency
1,CCn1c(=O)c2ccccc2n(CC(=O)NCCC2=CCCCC2)c1=O,"inconclusive [inhibitor, full curve]"
2,COc1ccc(-c2ccc([C@H]3[C@H]4C=CC[C@@H](C)[C@@H]4C(=O)N3Cc3ccccc3)c(F)c2)cc1,"inconclusive [inhibitor, partial curve, poor fit]"
3,CC(=O)c1c(C)n(CC(=O)NCc2ccco2)c2ccccc12,inactive
4,CN1CCN2c3ncccc3Cc3ccccc3C2C1 (configuration not stated),"inconclusive [inhibitor, single point]"
5,COc1ccc(Cn2ccc3nc(C)c(C(=O)N4CCN(c5cc(C)ccc5C)CC4)cc3c2=O)cc1,"inconclusive [inhibitor, single point]"
6,O=C(COC(=O)c1ccc(Br)o1)Nc1cccc(S(=O)(=O)N2CCCCC2)c1,"inconclusive [inhibitor, single point]"
7,CCNC(=S)N(Cc1cc2cc(C)c(C)cc2[nH]c1=O)C1CCCC1,"inconclusive [inhibitor, single point]"
8,COc1ccccc1CNC(=O)c1cc2cc(C)ccc2n1C,"inconclusive [inhibitor, full curve, poor fit]"
9,O=C(Cn1c(C(=O)OCCO)cc2ccccc21)c1ccccc1,"inconclusive [inhibitor, single point]"
10,COc1ccccc1CNC(=O)COc1ccccc1C(=O)c1cnn(-c2ccccc2)c1,"inconclusive [inhibitor, single point]"
11,CC1=C(C(=O)OC(C)(C)C)C(c2cccc3ccccc23)NC(=O)N1 (configuration not stated),inactive
12,c1ccc(-c2nnc3oc(-c4cccs4)nn23)cc1,"inconclusive [inhibitor, partial curve, poor fit]"
13,CN(C)CCN(C(=O)c1ccc(S(=O)(=O)N(C)c2ccccc2)cc1)c1nc2ccc(Cl)cc2s1,"inconclusive [inhibitor, partial curve]"
14,CCn1c(SCc2c(Cl)cccc2Cl)nc2nc3c(cc2c1=O)CCCC3,"inconclusive [inhibitor, partial curve, poor fit]"
15,CCN1C(=O)c2ccccc2Sc2ccc(C(=O)NCCC(C)C)cc21,"inconclusive [inhibitor, partial curve, poor fit]"
16,Cc1ccc(C(=O)N/N=C/c2ccc(-c3cccc(C(F)(F)F)c3)o2)cn1,"inconclusive [inhibitor, full curve, poor fit]"
17,CC(C)Oc1ccc(C(=O)N2CC(=O)Nc3ccc(F)cc3C2c2ccc(F)cc2)cc1 (configuration not stated),"inconclusive [inhibitor, single point]"
18,OC(COc1ccc(C2C=CCC2)cc1)CN1CCCCC1 (configuration not stated),"inconclusive [inhibitor, single point]"
19,COc1ccc(NC(=O)c2cc(-c3cc(F)ccc3OC)n[nH]2)cn1,"inconclusive [inhibitor, single point]"
20,Cc1ccc(-n2c(SCCC(C)C)nc3sc4c(c3c2=O)CC(C)(C)OC4)cc1,inactive
